In all, about 350,000 compounds went through this assay and about 9,900 (2.8%) were called active. This list was built around the results that the source calls inconclusive (neither active nor inactive); the mix of calls is not that of the screen. Calls come from the whole dose curve; as a rule, active = well fitted activation curve with a large enough effect; inconclusive = small, poorly fitted or top-dose-only effect; inactive = no such curve, though single readings can be large or run the other way. No potency is given beside an inconclusive call; the fits are too rough.
Test: A quantitative high throughput screen for small molecules that induce DNA re-replication in MCF 10a normal breast cells. For activity, positive = re-replication: % of control where 0% means no effect. Note: nearly all actives have a fitted effect of over 50% in size.
Settings: MCF 10A DNA re-replication, Hoechst nuclear intensity, 48 h; activity, positive = re-replication: at 46.1 µM (top of the series)
Potency is the fitted concentration of half-maximal effect; tags give direction and shape of the fitted curve.

SMILES | Potency | activity, positive = re-replication
Cn1cnc(C(=O)N2CCN(C(=O)OC(C)(C)C)CC2)c1C(=O)N1CCN(C(=O)OC(C)(C)C)CC1 | inconclusive [activator, full curve, poor fit] | –
O=C(CN1C(=O)c2ccccc2C1=O)OCC(=O)c1ccc(F)cc1 | inconclusive [activator, partial curve, poor fit] | –
COc1cc(/C=N/NC(=O)c2ccccn2)ccc1OC(=O)c1cccs1 | inconclusive [activator, single point] | –
CCOC(=O)C1=C(C)OC(N)=C(C#N)C1C1CCCCC1 (configuration not stated) | inconclusive [activator, partial curve, poor fit] | –
COc1ccc(CCn2c(=N)c(C(=O)NCCN3CCOCC3)cc3c(=O)n4cccc(C)c4nc32)cc1OC | inconclusive [activator, single point] | –
COc1ccc(CCNC(=O)Cn2cc(C(F)(F)F)cc(Cl)c2=O)cc1OC | inconclusive [activator, single point] | –
c1ccc2c(c1)oc1c(NCCCn3ccnc3)ncnc12 | – | inactive: -2.61%
CCCCCCN1CC(C(=O)OCC)C(=O)C1=O (configuration not stated) | – | inactive: -3.83%
COC(=O)[C@@]12CCCCN1[C@H](c1ccc(-c3cccc(Cl)c3)c(OC)c1)[C@H]1C(=O)N(C)C(=O)[C@H]12 | inconclusive [activator, single point] | –
COc1ccccc1C1=NOC(COc2ccc3c(C)cc(=O)oc3c2)C1 (configuration not stated) | active: 1.64 µM | –
CC(=O)N(C1=C(Cl)C(=O)c2ccccc2C1=O)C1CCCCC1 | inconclusive [activator, single point] | –
CS(=O)(=O)N1N=C(c2ccccc2)CC1c1ccc2nccnc2c1 (configuration not stated) | inconclusive [activator, single point] | –
COCCn1cnc2c(c1=O)c1nc3ccccc3nc1n2/N=C/c1cccc(OC)c1 | inconclusive [activator, single point] | –
CC(=O)COC(=O)CCc1nc2ccccc2[nH]c1=O | – | inactive: 2.07%
Cc1cc(Cl)ccc1NC(=O)CSc1nnc(Cc2cccs2)n1Cc1ccco1 | inconclusive [activator, partial curve, poor fit] | –
Cc1nc(CN2CCN(C(=O)c3ccc(C(C)(C)C)cc3)CC2)cs1 | – | inactive: 0.916%
O=C1NC(c2ccc(Br)cc2)Nc2ccccc21 (configuration not stated) | active: 18.4 µM | –
CCOc1ccc(N(CC(=O)Nc2ccc(C)c(C)c2)S(=O)(=O)c2c(C)noc2C)cc1 | inconclusive [activator, single point] | –
N=c1c(C(=O)NC2CCCCC2)cc2c(=O)n3ccccc3nc2n1Cc1ccc(F)cc1 | inconclusive [activator, partial curve, poor fit] | –
S=C(NCCCn1ccnc1)NC1CCCCC1 | inconclusive [activator, single point] | –
Cc1cc(C)nc(NC(=NCCc2c[nH]c3ccccc23)NC(=O)Nc2ccccc2)n1 | active: 25.9 µM | –

SMILES | Potency | activity, positive = re-replication
Cc1cc(C)c(Nc2cc(S(=O)(=O)O)c(N)c3c2C(=O)c2ccccc2C3=O)c(C)c1 | inconclusive [activator, single point] | –
CC(=O)c1ccc(NC(=S)N(CCCN(C)C)Cc2ccccc2)cc1 | – | inactive: 2.15%
O=C(COC(=O)c1ccc(S(=O)(=O)N2CCCC2)cc1)NCc1ccco1 | – | inactive: -6.97%
CC(=O)Nc1ccc(/C=C/C(=O)c2ccc3c(c2)OCCO3)cc1 | inconclusive [activator, single point] | –
Cc1ccc2nc(NCCCO)nc(-c3ccccc3)c2c1 | inconclusive [activator, single point] | –
CC1c2cc3c(cc2CCN1S(=O)(=O)c1ccccc1)OCCCO3 (configuration not stated) | – | inactive: 4.75%
CSc1ncc(C(=O)Nc2ccc(Br)cn2)c(C)n1 | inconclusive [activator, single point] | –
Cc1cc(C)c(NC(=O)CCCCCNC2CCCCC2)c(C)c1 | inconclusive [activator, partial curve, poor fit] | –
CCCCN1CC(COCc2ccccc2)Oc2cccc(OCCN3C(=O)[C@@H]4[C@H](C3=O)C3C=C[C@H]4C3)c2S1(=O)=O (some centres not stated) | inconclusive [activator, full curve] | –
CN(C)S(=O)(=O)c1cccc(COc2ccccc2C(=O)Nc2ccccc2)c1 | inconclusive [activator, partial curve, poor fit] | –
COc1ccc(C(=O)OCC(=O)NC(C)CCc2ccccc2)cc1OC (configuration not stated) | – | inactive: -3.94%
CCN(CC)c1ccc(NC(=O)c2ccc3c(c2)c(C)c(C)n3C)cc1 | inconclusive [activator, single point] | –
N#Cc1c(-c2cccc(Br)c2)cc(-c2ccco2)[nH]c1=O | active: 7.31 µM | –
CCCn1c(=O)c(C(=O)Nc2cccc(C)n2)c(O)c2ccccc21 | – | inactive: 12.5%
CCN1CCN(Cc2ccc(NC(=O)c3cc(NC(=O)C(=O)c4c[nH]c5ccccc45)cc(OC)c3)cc2C(F)(F)F)CC1 | inconclusive [activator, single point] | –
CCn1cc(C(=O)NCc2ccc(Cl)cc2)c(=O)c2cc(S(=O)(=O)N(C)C)ccc21 | inconclusive [activator, single point] | –
O=C(N/N=C/c1cn(-c2ccccc2)nc1-c1cccs1)c1ccc(Cl)cc1 | inconclusive [activator, partial curve, poor fit] | –
O=C(COc1ccc(Br)cc1)NC1CC1 | – | inactive: -2.3%
CC(=O)c1ccc(NS(=O)(=O)Cc2ccccc2)cc1 | inconclusive [activator, single point] | –
CCc1nnc(NS(=O)(=O)c2ccc(N/C=C/C(=O)c3ccc(OC)cc3)cc2)s1 | inconclusive [activator, single point] | –
Cc1nnc(SCc2nc3sc4c(c3c(=O)[nH]2)CCCC4)n(N)c1=O | inconclusive [activator, partial curve] | –
